# Assay results: PubChem BioAssay AID504333 (National Center for Advancing Translational Sciences (NCATS), 2011)
# About 16,000 (4.4%) of roughly 360,000 compounds were called active. This list was built around the results that the source calls inconclusive (neither active nor inactive); the mix of calls is not that of the screen. Calls come from the whole dose curve; as a rule, active = well fitted inhibition curve with a large enough effect; inconclusive = small, poorly fitted or top-dose-only effect; inactive = no such curve, though single readings can be large or run the other way. Where the call is inconclusive, the potency comes from a doubtful curve fit.
# Biological target: Bromodomain adjacent to zinc finger domain protein 2B (Homo sapiens) (UniProt Q9UIF8)
# Chain of UniProt Q9UIF8 (Q9UIF8 whole entry, looked up, the tested form may be a part): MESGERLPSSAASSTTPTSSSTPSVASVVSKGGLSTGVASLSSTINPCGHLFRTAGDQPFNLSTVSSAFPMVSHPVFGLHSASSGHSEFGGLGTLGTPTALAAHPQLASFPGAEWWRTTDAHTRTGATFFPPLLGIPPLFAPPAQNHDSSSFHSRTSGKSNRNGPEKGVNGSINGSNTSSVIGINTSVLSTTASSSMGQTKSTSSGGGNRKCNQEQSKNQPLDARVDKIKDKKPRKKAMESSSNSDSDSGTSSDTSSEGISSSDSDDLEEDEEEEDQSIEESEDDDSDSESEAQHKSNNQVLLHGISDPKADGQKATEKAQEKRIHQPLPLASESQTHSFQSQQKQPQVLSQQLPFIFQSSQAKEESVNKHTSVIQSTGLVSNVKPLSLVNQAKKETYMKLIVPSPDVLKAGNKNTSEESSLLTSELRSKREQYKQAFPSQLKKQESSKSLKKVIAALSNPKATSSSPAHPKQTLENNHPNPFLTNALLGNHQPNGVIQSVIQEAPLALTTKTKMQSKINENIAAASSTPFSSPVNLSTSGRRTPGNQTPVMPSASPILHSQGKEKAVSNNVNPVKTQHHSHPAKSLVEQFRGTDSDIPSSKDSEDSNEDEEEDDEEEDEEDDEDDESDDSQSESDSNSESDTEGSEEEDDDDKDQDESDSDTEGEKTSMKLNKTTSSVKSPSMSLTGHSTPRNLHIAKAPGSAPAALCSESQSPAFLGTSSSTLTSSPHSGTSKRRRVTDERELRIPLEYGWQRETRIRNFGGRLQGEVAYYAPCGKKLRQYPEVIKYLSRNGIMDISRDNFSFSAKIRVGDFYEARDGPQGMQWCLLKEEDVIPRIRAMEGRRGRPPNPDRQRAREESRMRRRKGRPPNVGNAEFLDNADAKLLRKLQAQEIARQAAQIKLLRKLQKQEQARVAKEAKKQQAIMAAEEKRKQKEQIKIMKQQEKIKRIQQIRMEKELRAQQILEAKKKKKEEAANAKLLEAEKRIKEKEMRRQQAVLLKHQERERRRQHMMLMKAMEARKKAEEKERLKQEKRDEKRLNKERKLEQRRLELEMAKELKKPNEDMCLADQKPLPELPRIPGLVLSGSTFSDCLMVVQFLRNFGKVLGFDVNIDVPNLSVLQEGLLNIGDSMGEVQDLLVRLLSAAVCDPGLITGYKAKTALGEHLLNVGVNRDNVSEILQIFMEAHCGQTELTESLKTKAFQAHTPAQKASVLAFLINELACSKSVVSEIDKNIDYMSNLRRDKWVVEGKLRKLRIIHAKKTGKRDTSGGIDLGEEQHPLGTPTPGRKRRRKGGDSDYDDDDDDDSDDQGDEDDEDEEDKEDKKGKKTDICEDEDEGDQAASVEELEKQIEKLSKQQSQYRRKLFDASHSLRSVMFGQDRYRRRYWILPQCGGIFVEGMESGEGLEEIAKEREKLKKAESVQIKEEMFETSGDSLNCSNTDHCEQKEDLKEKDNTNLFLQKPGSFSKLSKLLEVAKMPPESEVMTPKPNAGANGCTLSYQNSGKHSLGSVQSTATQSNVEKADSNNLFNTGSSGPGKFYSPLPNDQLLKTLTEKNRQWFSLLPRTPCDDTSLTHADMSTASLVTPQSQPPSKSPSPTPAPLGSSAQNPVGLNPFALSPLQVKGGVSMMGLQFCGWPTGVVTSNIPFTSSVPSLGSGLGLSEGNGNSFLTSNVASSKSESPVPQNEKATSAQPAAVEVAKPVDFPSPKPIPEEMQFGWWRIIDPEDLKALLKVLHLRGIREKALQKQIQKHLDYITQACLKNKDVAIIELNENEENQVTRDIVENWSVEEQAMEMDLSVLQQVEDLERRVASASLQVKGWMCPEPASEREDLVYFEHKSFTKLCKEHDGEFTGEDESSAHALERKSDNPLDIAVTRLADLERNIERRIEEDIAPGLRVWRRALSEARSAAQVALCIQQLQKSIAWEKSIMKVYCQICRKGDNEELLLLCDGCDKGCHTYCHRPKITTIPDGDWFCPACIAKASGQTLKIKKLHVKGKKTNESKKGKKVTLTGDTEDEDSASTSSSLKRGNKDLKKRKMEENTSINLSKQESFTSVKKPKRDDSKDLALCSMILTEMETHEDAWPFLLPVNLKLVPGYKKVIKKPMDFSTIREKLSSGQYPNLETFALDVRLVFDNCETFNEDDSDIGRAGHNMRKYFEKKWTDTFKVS
# Test: qHTS Assay for Inhibitors of BAZ2B; note: nearly all actives have a fitted effect of over 60% in size
# Details: AlphaScreen BAZ2B-H3K14Ac peptide displacement; activity change, negative = inhibition: at 114 µM (top of the series)
# How it was run: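 BAZ2B (50 nM) with biotin-H3(5-23)K14Ac peptide (50 nM) in PBS pH 7.4, 0.01% Tween-20, preformed 30 min, then compound 30 min at room temperature; top concentration 110uM. AlphaScreen streptavidin donor/nickel chelate acceptor beads (10 ug/mL final), 20 min dark, signal read.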
# % is set by controls: 0 for no effect and ±100 for the full control effect; potency is the fitted concentration of half-maximal effect; tags give direction and shape of the fitted curve.
Structure (SMILES),Potency,"activity change, negative = inhibition"
Cc1ccc2nc(-c3ccccc3)c(CN3CCN(c4ccccc4F)CC3)n2c1,"inconclusive: 22.4 µM [inhibitor, full curve]",–
Cc1nnc(NCCc2ccccc2)[nH]c1=O,–,inactive: 1.68%
CCCCCc1cc(=O)oc2c(C(CCN(CC)CC)c3ccc(N(C)C)cc3)c(OC)cc(OC)c12 (configuration not stated),active: 14.1 µM,–
Cc1ccc(NC(=S)NCCN(C2CCCCC2)C2CCCC2)cc1C,"inconclusive: 39.8 µM [inhibitor, partial curve]",–
O=C(c1ccccc1O)N1N=C(C(F)(F)F)CC1(O)c1ccc([N+](=O)[O-])cc1 (configuration not stated),"inconclusive: 50.1 µM [inhibitor, partial curve]",–
CCOc1ccccc1N1CC(c2nc3ccccc3n2CCOc2ccc(OC)cc2)CC1=O (configuration not stated),"inconclusive: 79.4 µM [inhibitor, partial curve]",–
COc1ccc(C(=O)Nc2nc(N)n(-c3ccccc3)n2)cc1OC,"inconclusive: 89.1 µM [inhibitor, single point]",–
CCCCn1c(N)c(N(CC(C)C)C(=O)c2ccc(S(=O)(=O)N3CCCCCC3)cc2)c(=O)[nH]c1=O,–,inactive: -3.44%
COc1cc(NS(=O)(=O)c2ccc(N/C=C(\C#N)c3nc4ccccc4o3)cc2)nc(OC)n1,"inconclusive: 50.1 µM [inhibitor, partial curve]",–
O=C(Nc1ccccc1)c1cc(Cl)nc2ccccc12,–,inactive: -17.9%
CCOC(=O)C1=C(N)Oc2ccc3ccccc3c2C1c1ccc(O)c(OC)c1 (configuration not stated),"inconclusive: 50.1 µM [inhibitor, partial curve]",–
O=C(O)c1[nH]c2ccccc2c1C(c1cc(Br)ccc1O)c1c(C(=O)O)[nH]c2ccccc12,"inconclusive: 89.1 µM [inhibitor, single point]",–
CCn1c(=O)c2cc(C(=O)Nc3cc(C)c(Cl)cc3OC)sc2c2ccccc21,–,inactive: -0.595%
CN1C/C(=C\c2ccc(N3CCOCC3)cc2)C(=O)/C(=C/c2ccc(N3CCOCC3)cc2)C1,active: 50.1 µM,–
O=C(c1ccc(Cl)cc1)N1CCCCC1CCN1CCOCC1 (configuration not stated),–,inactive: -5.74%
CCCCCCC(=O)N(O)C1CC(=O)N(c2ccc(Cl)cc2)C1=O (configuration not stated),–,inactive: -19.2%
Cc1ccc(CN2CCN(/N=C/c3ccccc3)CC2)cc1,"inconclusive: 35.5 µM [inhibitor, partial curve]",–
O=[N+]([O-])c1cccc(Nc2c3ccccc3nc3ccccc23)c1,"inconclusive: 89.1 µM [inhibitor, single point]",–
CC1=CC(=O)C=C(C)C1=NOS(=O)(=O)c1ccccc1,"inconclusive: 89.1 µM [inhibitor, single point]",–
CC1(C(=O)CSc2nc3ccccc3s2)CCC(=O)O1 (configuration not stated),"inconclusive: 89.1 µM [inhibitor, single point]",–
COC(=O)c1ccc2nc(NC(=O)CN3C(=O)CCC3=O)sc2c1,active: 56.2 µM,–
CC(C)Cn1c(=O)c2sccc2n2c(CCCC(=O)NCC(C)c3ccccc3)nnc12 (configuration not stated),–,inactive: -9.13%
Cc1ccccc1N1CCN(C2=NC(=O)/C(=C/c3cn[nH]c3-c3ccccc3)S2)CC1,–,inactive: -1.26%
CCOC(=O)c1c(N2C(=O)Nc3ccccc3N2O)n[nH]c1-c1cccc(OC)c1,–,inactive: 10%

Structure (SMILES),Potency,"activity change, negative = inhibition"
O=C(CCc1nnc2n(Cc3ccccc3Cl)c(=O)c3ccccc3n12)Nc1ccccc1,–,inactive: -0.604%
Cc1cc(=O)oc2c(C)c(OC(C)C(=O)N3CC[C@@]4(O)CCCC[C@H]4C3)ccc12 (some centres not stated),"inconclusive: 89.1 µM [inhibitor, single point]",–
CC(C)(C)c1ccc(OC(=O)Nc2ccc(O)c(C(=O)O)c2)cc1,"inconclusive: 79.4 µM [inhibitor, partial curve]",–
COc1cc(/C=C(\C#N)C(=O)NCC2CCCO2)c([N+](=O)[O-])cc1OC (configuration not stated),"inconclusive: 89.1 µM [inhibitor, single point]",–
O=C1CN(c2nc3ccccc3n3cnnc23)CC(=O)N1CCc1ccccc1,–,inactive: -3.98%
O=C(COc1cccc2ccccc12)N/N=C/c1ccccc1OCc1ccc(C(=O)O)cc1,"inconclusive: 63.1 µM [inhibitor, partial curve]",–
O=C(/C=C/c1cccc([N+](=O)[O-])c1)NCCSc1ccccc1,"inconclusive: 89.1 µM [inhibitor, single point]",–
CCOC(=O)c1[nH]c(C)c(C(=O)NCc2ccccc2Cl)c1C,–,inactive: -14.3%
COCCOc1cc(NC(=O)c2sccc2Oc2ccc([N+](=O)[O-])cc2F)c(Cl)cc1Cl,–,inactive: -31.8%
Cc1oc(C(=O)O)cc1COc1ccc2c3c(c(=O)oc2c1C)CCC3,active: 12.6 µM,–
CCCN(CCC(=O)Nc1ccccc1F)CC1CC1,–,inactive: -12.7%
COc1ccc(CNC(=O)C2CCN(S(=O)(=O)Cc3ccccc3)CC2)cc1,"inconclusive: 89.1 µM [inhibitor, single point]",–
COc1ccccc1NC(=O)Cc1nc(CCl)cs1,active: 56.2 µM,–
COc1cccc(C2c3[nH]c4ccccc4c3CCN2C(=O)c2ccccc2F)c1OC (configuration not stated),"inconclusive: 70.8 µM [inhibitor, single point]",–
CCOc1ccccc1NC(=O)c1cnc2n(c1=O)CCS2,–,inactive: -2.2%
Cc1ccc2c(c1)-c1onc(C(=O)N(C)c3ccc(F)cc3)c1CO2,–,inactive: 2.09%
COc1ccc(N2CCN(C(=O)c3cccnc3SCc3cccc(Br)c3)CC2)cc1,"inconclusive: 22.4 µM [inhibitor, full curve]",–
CC(=O)Nc1nnc(-c2c(-c3ccccc3Cl)noc2C)o1,"inconclusive: 89.1 µM [inhibitor, single point]",–
COc1ccc(C(=O)C(C)[n+]2ccc(-c3nnc4n3CCCCC4)cc2)cc1 (configuration not stated),"inconclusive: 89.1 µM [inhibitor, single point]",–
NC(=O)C[C@H]1NC(=O)[C@H](CCC(=O)O)NC(=O)c2cc([N+](=O)[O-])cc(I)c2NCCC[C@@H](C(N)=O)NC1=O,"inconclusive: 79.4 µM [inhibitor, single point]",–
Cc1cc(C(=O)CN2C(=O)NC(Cc3c[nH]c4ccccc34)C2=O)c(C)n1C (configuration not stated),active: 50.1 µM,–
COCCNC(=O)CCc1ccc(S(=O)(=O)Nc2ccc(C)cc2)cc1,–,inactive: -1.37%
COc1ccc(C(=O)c2no[n+]([O-])c2C(=O)c2ccc(OC)cc2)cc1,–,inactive: -9.16%
O=C1c2cccc(Sc3ccccc3)c2C(=O)c2c(Sc3ccccc3)cccc21,active: 15.8 µM,–

Structure (SMILES),Potency,"activity change, negative = inhibition"
CC1=C(C(=O)Nc2ccccc2C)C(c2ccc[nH]2)n2ncnc2N1 (configuration not stated),active: 50.1 µM,–
O=C(c1ccc(Cl)c(S(=O)(=O)N2CCCC2)c1)N1CCN(c2ccc(F)cc2)CC1,active: 56.2 µM,–
CCN1C(=O)c2ccccc2S(=O)c2ccc(C(=O)N3CCN(c4cccc(Cl)c4)CC3)cc21 (configuration not stated),"inconclusive: 56.2 µM [inhibitor, partial curve]",–
CCN1C(=O)/C(=C2/C=Cc3ccccc3N2C)OC1=S,–,inactive: -28.6%
CCOC(=O)c1[nH]c2ccccc2c1NC(=O)c1ccc(S(=O)(=O)N2CCCC2)cc1,–,inactive: 0.849%
O=C(CSc1nnnn1-c1ccc(O)cc1)Nc1ccc(N2CCOCC2)c(Cl)c1,"inconclusive: 22.4 µM [inhibitor, full curve]",–
CC(=O)NCCC(=O)N1CCc2c([nH]c3ccccc23)C1c1cccc(Cl)c1 (configuration not stated),"inconclusive: 89.1 µM [inhibitor, single point]",–
O=C(/C=C/c1ccc(O)c([N+](=O)[O-])c1)c1ccc2ccccc2c1,"inconclusive: 7.08 µM [inhibitor, full curve]",–
COc1ccc(/C=C2/SC(=S)N(CCCC(=O)N3CCN(C)CC3)C2=O)cc1,active: 31.6 µM,–
COc1cc(/C=N/Nc2ccccc2C(F)(F)F)ccc1O,–,inactive: -35.4%
COc1ccc(N2CCN(c3nc(NCCO)nc(N4CCOCC4)n3)CC2)cc1,"inconclusive: 50.1 µM [inhibitor, partial curve]",–
Cc1ccc(Sc2c(C)nn(-c3ccccc3)c2OC(=O)CC(C)C)cc1,–,inactive: 7.48%
OC1(C#CCN2CCCC2)c2ccccc2-c2ccccc21,"inconclusive: 79.4 µM [inhibitor, single point]",–
Cc1cc2occ(CC(=O)NNC(=O)c3ccccc3F)c2cc1C,"inconclusive: 79.4 µM [inhibitor, single point]",–
O=C(Nc1ccc2c(c1)OCO2)C1CCN(S(=O)(=O)Cc2ccccc2)CC1,–,inactive: 0.587%
CCOc1ccc(CC(=O)NCc2ccc3c(c2)CCN3C(=O)c2ccc(F)cc2)cc1OCC,–,inactive: -5.21%
COc1cc(OC)cc(C(=O)OCC(=O)c2cc(C)n(CC3CCCO3)c2C)c1 (configuration not stated),"inconclusive: 79.4 µM [inhibitor, single point]",–
Cc1cc(C)nc(NS(=O)(=O)c2ccc(NC(=O)c3nn(-c4ccccc4)ccc3=O)cc2)n1,–,inactive: -2.56%
COc1ccc(Nc2cc(C)nc(-n3nc(C)cc3C)n2)cc1,"inconclusive: 39.8 µM [inhibitor, full curve, poor fit]",–
Cc1ccccc1CN1C(=O)c2ccccc2Sc2ccc(C(=O)NCCCN3CCOCC3)cc21,"inconclusive: 79.4 µM [inhibitor, single point]",–
COc1cc(NC(=O)C2CCN(S(=O)(=O)c3c(C)noc3/C=C/c3c(C)cc(C)cc3C)CC2)cc(OC)c1,–,inactive: -0.0876%
CC(C)(C)OC(=O)NCc1ccc(CNC(=O)c2[nH]cnc2C(=O)N[C@@H](Cc2ccccc2)C(=O)OCc2ccccc2)cc1,–,inactive: -8.92%
O=C(NN1CCOCC1)c1ccc([N+](=O)[O-])cc1,–,inactive: 2.08%
COC(=O)c1[nH]c2cccc(OC)c2c1NC(=O)CN1CCN(c2cccc(OC)c2)C(C)C1 (configuration not stated),"inconclusive: 50.1 µM [inhibitor, partial curve]",–
